The list shows a part of the results. These are noisy estimates, calculated here from bound and input reads.

In this test the target is T1, Pho4 (S. cerevisiae) (UniProt P07270).
T1 sequence: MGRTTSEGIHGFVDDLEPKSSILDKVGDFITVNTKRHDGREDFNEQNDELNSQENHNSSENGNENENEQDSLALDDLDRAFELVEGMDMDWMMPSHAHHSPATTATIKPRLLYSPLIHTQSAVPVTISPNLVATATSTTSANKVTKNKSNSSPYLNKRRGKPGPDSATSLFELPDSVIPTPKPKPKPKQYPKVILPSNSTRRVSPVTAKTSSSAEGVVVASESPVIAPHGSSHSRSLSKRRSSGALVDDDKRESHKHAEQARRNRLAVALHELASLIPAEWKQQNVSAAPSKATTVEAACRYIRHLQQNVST
The experiment in a line: relative binding free energy (BET-seq); higher = weaker binding. The settings on record: reference: library average.
As for TCAGGCACGTGTTGTA, the “relative binding free energy” value is -0.16 kcal/mol.

For the sequence TTTATCACGTGTCTGT, the “relative binding free energy” value was determined as 0 kcal/mol.

GATGTCACGTGAGGAT: the “relative binding free energy” value is 0.28 kcal/mol.

On to TGAGCCACGTGTCGGG, for which the “relative binding free energy” value worked out at 0.03 kcal/mol.

In the case of GGTATCACGTGAAGGG, the “relative binding free energy” value was 0.4 kcal/mol.

For GGTTCCACGTGATAGT, the “relative binding free energy” value was 0.14 kcal/mol.

Consider TGATGCACGTGGAAAG, for which the “relative binding free energy” value amounted to 0.18 kcal/mol.

In the case of TGGCACACGTGTGAGA, the “relative binding free energy” value was 0.16 kcal/mol.

CACGACACGTGTGGGG: the “relative binding free energy” value was found to be 0.11 kcal/mol.

With ATATTCACGTGAAATG, the “relative binding free energy” value was 0.26 kcal/mol.

Turning to TGGAACACGTGGACGT, the “relative binding free energy” value was determined as 0.17 kcal/mol.

Turning to TGGGGCACGTGCATGA, the “relative binding free energy” value was -0.27 kcal/mol.

For the sequence GAGGTCACGTGGAATA, the “relative binding free energy” value was found to be 0.26 kcal/mol.

ATGCTCACGTGGAGTG: the “relative binding free energy” value worked out at 0.15 kcal/mol.

For GTTTGCACGTGAAGGA, the “relative binding free energy” value was found to be 0.28 kcal/mol.

As to AGGTACACGTGTAACG, the “relative binding free energy” value is 0.23 kcal/mol.

ATGGTCACGTGATATG: the “relative binding free energy” value came to 0.3 kcal/mol.

As to TAATTCACGTGAGGGA, the “relative binding free energy” value came to 0.33 kcal/mol.

On to TTATACACGTGGACGT, for which the “relative binding free energy” value turned out to be 0.13 kcal/mol.

Take AAGATCACGTGGTTGT: the “relative binding free energy” value came out at 0.21 kcal/mol.

In the case of GTTCTCACGTGATTTG, the “relative binding free energy” value was 0.29 kcal/mol.

For the sequence ACGGGCACGTGGATAG, the “relative binding free energy” value was -0.16 kcal/mol.

For GATAACACGTGTGGAT, the “relative binding free energy” value came out at 0.11 kcal/mol.

Take ATGATCACGTGTAGTA: the “relative binding free energy” value was 0.13 kcal/mol.

For TGTTGCACGTGTGGGC, the “relative binding free energy” value is 0.09 kcal/mol.

For the sequence ACGGGCACGTGTAGTG, the “relative binding free energy” value was -0.01 kcal/mol.

For GGAGGCACGTGTCATG, the “relative binding free energy” value is -0.16 kcal/mol.

Take CAGAGCACGTGTTATG: the “relative binding free energy” value came to 0.06 kcal/mol.

Take GGGGACACGTGTTCGA: the “relative binding free energy” value was determined as 0.14 kcal/mol.

In the case of CGTCACACGTGTGTGT, the “relative binding free energy” value was -0.1 kcal/mol.

Turning to GGTGTCACGTGTCTCA, the “relative binding free energy” value was 0.31 kcal/mol.

Take AGGATCACGTGATGAG: the “relative binding free energy” value was found to be 0.32 kcal/mol.

For the sequence ATTCTCACGTGGGTGT, the “relative binding free energy” value was 0.14 kcal/mol.

Turning to AGTTTCACGTGTGGCT, the “relative binding free energy” value stood at 0.34 kcal/mol.

In the case of AAACGCACGTGGTGGT, the “relative binding free energy” value was -0.14 kcal/mol.

Turning to TAGTGCACGTGCGTGT, the “relative binding free energy” value was -0.03 kcal/mol.

Regarding TGTAACACGTGGATGG, the “relative binding free energy” value is -0.03 kcal/mol.

On to ATGAACACGTGTGAGT, for which the “relative binding free energy” value is 0.12 kcal/mol.

On to AAGTTCACGTGATTAT, for which the “relative binding free energy” value is 0.37 kcal/mol.

In the case of TGTTGCACGTGGGTTA, the “relative binding free energy” value is -0.17 kcal/mol.

On to GTTGTCACGTGCGGCA, for which the “relative binding free energy” value is 0.07 kcal/mol.

For TTGAGCACGTGCGTAG, the “relative binding free energy” value is -0.18 kcal/mol.

Regarding TAATTCACGTGATGGT, the “relative binding free energy” value was found to be 0.35 kcal/mol.

Regarding TGCAGCACGTGGGAGG, the “relative binding free energy” value is -0.2 kcal/mol.

For the sequence GGCTTCACGTGTTTAG, the “relative binding free energy” value is 0.18 kcal/mol.

On to AAATGCACGTGATAGG, for which the “relative binding free energy” value was -0.02 kcal/mol.

For the sequence TCACGCACGTGAGGGT, the “relative binding free energy” value worked out at 0.16 kcal/mol.

AAGTTCACGTGTATTT: the “relative binding free energy” value came out at 0.44 kcal/mol.

As to TTGTACACGTGGATGG, the “relative binding free energy” value came out at 0 kcal/mol.

AGCGGCACGTGCGAGG: the “relative binding free energy” value stood at 0.05 kcal/mol.

As for AATGTCACGTGAATTG, the “relative binding free energy” value was found to be 0.13 kcal/mol.

GTGTGCACGTGTGAGC: the “relative binding free energy” value is 0.07 kcal/mol.

For GTACTCACGTGAAGGT, the “relative binding free energy” value is 0.32 kcal/mol.

On to GTTCACACGTGATTAG, for which the “relative binding free energy” value came out at 0.38 kcal/mol.

As to GTGGTCACGTGCATAG, the “relative binding free energy” value amounted to 0.05 kcal/mol.

Turning to AGATTCACGTGTTTGT, the “relative binding free energy” value came out at 0.25 kcal/mol.

For the sequence TGGGACACGTGTCGGA, the “relative binding free energy” value was 0.05 kcal/mol.

Turning to AATTTCACGTGCAGTT, the “relative binding free energy” value was 0.2 kcal/mol.

As for GGTTGCACGTGAGGGC, the “relative binding free energy” value came to 0.31 kcal/mol.

Consider GACAGCACGTGTTAGT, for which the “relative binding free energy” value turned out to be 0.12 kcal/mol.

For AGTACCACGTGGGGAG, the “relative binding free energy” value was -0.21 kcal/mol.

As for GATAACACGTGGTAGG, the “relative binding free energy” value was 0.05 kcal/mol.

Consider TAGTGCACGTGGCTGG, for which the “relative binding free energy” value was found to be 0 kcal/mol.

Regarding GGGATCACGTGGTTGT, the “relative binding free energy” value is 0.15 kcal/mol.

Consider GGTCGCACGTGAAAGG, for which the “relative binding free energy” value was determined as 0.09 kcal/mol.

CGTGTCACGTGGATAT: the “relative binding free energy” value amounted to 0.1 kcal/mol.

Turning to GTATCCACGTGGGTGA, the “relative binding free energy” value was found to be 0.01 kcal/mol.

In the case of CTTTACACGTGAGAGG, the “relative binding free energy” value amounted to 0.39 kcal/mol.

On to ACAGTCACGTGTTATG, for which the “relative binding free energy” value was determined as 0.01 kcal/mol.

Take ATATACACGTGGTTTG: the “relative binding free energy” value was -0.11 kcal/mol.

Regarding GGGTCCACGTGGTAGA, the “relative binding free energy” value is -0.03 kcal/mol.

As to GAGGACACGTGACGGG, the “relative binding free energy” value was 0.14 kcal/mol.

For the sequence TGCTGCACGTGATGTG, the “relative binding free energy” value turned out to be 0.06 kcal/mol.

Take CGTTTCACGTGGTGGA: the “relative binding free energy” value worked out at 0.39 kcal/mol.

With GATGACACGTGGTGTA, the “relative binding free energy” value was -0.06 kcal/mol.

For the sequence GTTGACACGTGGTTCT, the “relative binding free energy” value was -0.05 kcal/mol.

Regarding TTGATCACGTGGGAGG, the “relative binding free energy” value is 0.07 kcal/mol.

In the case of TGGTACACGTGGATAG, the “relative binding free energy” value was determined as 0.09 kcal/mol.

For the sequence GGGCACACGTGTAGTT, the “relative binding free energy” value is 0.19 kcal/mol.

GGTGGCACGTGTCGGG: the “relative binding free energy” value amounted to 0 kcal/mol.

Consider AGATACACGTGGTAGA, for which the “relative binding free energy” value was -0.03 kcal/mol.

Take ATAATCACGTGAGCGG: the “relative binding free energy” value was found to be 0.37 kcal/mol.

On to GATGGCACGTGTGGAT, for which the “relative binding free energy” value is -0.13 kcal/mol.

In the case of GGGGACACGTGTGCGC, the “relative binding free energy” value was found to be 0.05 kcal/mol.

With ATATGCACGTGATTGA, the “relative binding free energy” value was -0.02 kcal/mol.

As to TTAGACACGTGAATAG, the “relative binding free energy” value was 0.2 kcal/mol.

ATGGTCACGTGGAGCG: the “relative binding free energy” value turned out to be 0.14 kcal/mol.

Regarding TGAATCACGTGGTTTG, the “relative binding free energy” value came to 0.16 kcal/mol.

With GGAGGCACGTGATGTC, the “relative binding free energy” value is -0.03 kcal/mol.

On to GGGCTCACGTGGGGTC, for which the “relative binding free energy” value came to 0.19 kcal/mol.

With AGTGGCACGTGGTGCA, the “relative binding free energy” value was -0.1 kcal/mol.

As to ACGGTCACGTGTGGCT, the “relative binding free energy” value worked out at 0.09 kcal/mol.

Regarding TTTTGCACGTGACTAT, the “relative binding free energy” value came out at 0.04 kcal/mol.

Take TTCGTCACGTGTTTTA: the “relative binding free energy” value came out at 0.03 kcal/mol.

Take GTGCTCACGTGATGGT: the “relative binding free energy” value turned out to be 0.32 kcal/mol.

On to ACTTGCACGTGATTTT, for which the “relative binding free energy” value was 0.05 kcal/mol.

In the case of TAGATCACGTGTATTT, the “relative binding free energy” value is 0.08 kcal/mol.

Take CTGTTCACGTGGAAGT: the “relative binding free energy” value is 0.34 kcal/mol.

As for ATGTTCACGTGGCCGG, the “relative binding free energy” value was determined as 0.09 kcal/mol.

As for GGGTGCACGTGGAATT, the “relative binding free energy” value was -0.01 kcal/mol.

As to AGGTTCACGTGAGAAT, the “relative binding free energy” value was 0.35 kcal/mol.

Regarding TCGAGCACGTGAGGGC, the “relative binding free energy” value was 0.25 kcal/mol.

Turning to GTTGGCACGTGTGCTA, the “relative binding free energy” value is -0.02 kcal/mol.

On to CTCGTCACGTGTAGGG, for which the “relative binding free energy” value was -0.04 kcal/mol.

Consider CGGCACACGTGGGATG, for which the “relative binding free energy” value was determined as 0.02 kcal/mol.

For the sequence TAACGCACGTGGAGGG, the “relative binding free energy” value was -0.03 kcal/mol.

As for ATTGACACGTGTGAAT, the “relative binding free energy” value amounted to 0.08 kcal/mol.

On to GTGGGCACGTGCATAT, for which the “relative binding free energy” value was -0.15 kcal/mol.

On to TAGTACACGTGGGAGA, for which the “relative binding free energy” value was found to be 0.01 kcal/mol.

As for CTTGGCACGTGGAACG, the “relative binding free energy” value is 0.03 kcal/mol.

CTATACACGTGGGGTT: the “relative binding free energy” value was -0.16 kcal/mol.

As for AGTTTCACGTGAAAAT, the “relative binding free energy” value worked out at 0.43 kcal/mol.

Turning to TCGGTCACGTGAAGGA, the “relative binding free energy” value was determined as 0.18 kcal/mol.

Take TTATTCACGTGAGTCT: the “relative binding free energy” value was 0.48 kcal/mol.

For AAGTTCACGTGTTAGT, the “relative binding free energy” value stood at 0.27 kcal/mol.

These data come from the BET-seq Pho4 binding data (Le et al. 2018).
